Results from PubChem BioAssay AID602393 (Broad Institute, 2012).
Hit rate of the full screen: of about 350,000 compounds, about 7,000 (2%) were called active. This list was built around the results that the source calls inconclusive (neither active nor inactive); the mix of calls is not that of the screen. Cut-off read from the data, not from the text of the source: active = activation above about 40%; inconclusive = no clear call, values can overlap the other calls; inactive = below that.

Assay: raisers of Bmi1 knock-in reporter signal – mouse ES cells, Bmi1 luciferase knock-in, single point, esBAF inhibitor project, primary screen (AID 602393);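 note: 0% = median of the plate's neutral control wells and 100% = double that signal; a rise in the Bmi1 reporter signal indicates esBAF inhibition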
Conditions: 24 h, at 12.5 µM, active compounds read high, 100% = twice the neutral-well signal

Which reporter increase does the source give for `C[C@H]1CN([C@@H](C)CO)C(=O)c2cc(NS(=O)(=O)c3cn(C)cn3)ccc2O[C@@H]1CN(C)Cc1ccc(Oc2ccccc2)cc1` here?
Its reporter increase is inactive: 0.662%.

Which reporter increase does the source give for `Cc1cn(CCC(=O)Nc2ccc(N3CCOCC3)cc2)c2ccccc12` here?
The reporter increase was inconclusive: 44.8%.

For `C/C(=C\C(=O)Nc1cc(C)on1)c1ccccc1`, which reporter increase is on record?
The reporter increase was inconclusive: 41.8%.

With `COc1ccc(NC(=O)c2noc3c2CCC3)cc1` as the compound, how does the reporter increase read?
Its reporter increase is active: 94.9%.

With `CCN1C(=O)[C@H]2[C@@H](c3ccc(C)cc3)N3C(=O)N(c4ccc(C)cc4)C(=O)[C@@]3(CC)[C@H]2C1=O` as the compound, how does the reporter increase read?
Its reporter increase is active: 46.8%.

For `CCc1ccc2nc(N3CCN(C(=O)C(C)(C)C)CC3)sc2c1`, which reporter increase is on record?
The reporter increase was inconclusive: 41.8%.

Which reporter increase does the source give for `COc1ccc(NC(=O)c2oc3ccccc3c2NC(=O)c2ccc3c(c2)OCO3)cc1` here?
Its reporter increase is inconclusive: 46%.

For `CC(C)c1ccc(NC(=O)c2snc3ccc(Cl)cc23)cc1`, which reporter increase is on record?
Its reporter increase is inconclusive: 61.3%.

For `c1ccc(-c2csc(N3CCN(c4ccccn4)CC3)n2)cc1`, which reporter increase is on record?
The reporter increase was active: 61%.

With `CC(C)COc1ccc(N)cc1OCC(C)C` as the compound, how does the reporter increase read?
The reporter increase was inactive: -6.86%.

Which reporter increase does the source give for `CCCC(=O)N1CCCC(c2cc(C(=O)Nc3ccc4c(c3)OCO4)no2)C1` (stereo unspecified) here?
Its reporter increase is inconclusive: 42.6%.

For `CCc1ccccc1NC(=O)c1cc(-c2cccs2)on1`, which reporter increase is on record?
The reporter increase was inconclusive: 43.8%.

For `CN(c1ccc(C(=O)Nc2ccc3c(c2)OCCO3)cc1)S(C)(=O)=O`, which reporter increase is on record?
Its reporter increase is inconclusive: 46.6%.

For `COCC(=O)N1[C@H](CO)[C@H]2c3ccccc3N(C(=O)Nc3cc(F)ccc3F)C[C@H]21`, which reporter increase is on record?
Its reporter increase is inactive: -4.48%.

Which reporter increase does the source give for `C=CCNc1nc(Nc2ccccc2F)nc(OCC)n1` here?
Its reporter increase is active: 85.4%.

Which reporter increase does the source give for `COc1ccc(C(=O)Nc2ccccc2C(=O)Nc2ccccc2C(=O)O)cc1` here?
Its reporter increase is inconclusive: 34.8%.

For `CC(=O)N1[C@H](CNC(=O)CN(C)C)[C@H](c2ccc(C3=CCCCC3)cc2)[C@@H]1CO`, which reporter increase is on record?
The reporter increase was inactive: 4.78%.

For `Oc1ccccc1-c1nnc(-c2ccc(C(F)(F)F)cc2)o1`, which reporter increase is on record?
Its reporter increase is inconclusive: 40.2%.

Which reporter increase does the source give for `O=C(Nc1ccc(NC(=O)c2ccccc2)nc1)c1ccncc1` here?
The reporter increase was active: 42.7%.

For `COc1ccc(CC(=O)N/N=C/c2ccc(-c3cccc(C(=O)O)c3)o2)cc1OC`, which reporter increase is on record?
The reporter increase was inconclusive: 48.2%.

With `O=C(O)c1ccccc1C(=O)Nc1ccc(Nc2ccc([N+](=O)[O-])cc2[N+](=O)[O-])cc1` as the compound, how does the reporter increase read?
The reporter increase was inactive: -0.0495%.

With `Cn1cccc1-c1nc2ccc([N+](=O)[O-])cc2[nH]1` as the compound, how does the reporter increase read?
Its reporter increase is inconclusive: 63.5%.

With `Cc1noc(C)c1S(=O)(=O)Nc1ccc2c(c1)C(=O)N([C@H](C)CO)C[C@@H](C)[C@@H](CN(C)C)OCCCC[C@@H](C)O2` as the compound, how does the reporter increase read?
Its reporter increase is inactive: 4.88%.

With `NC(=O)c1ccsc1NC(=O)c1cc(=O)c2ccccc2o1` as the compound, how does the reporter increase read?
The reporter increase was inconclusive: 40.6%.

For `CCCCCC(=O)Nc1nc2ccccc2[nH]1`, which reporter increase is on record?
The reporter increase was inconclusive: 50.8%.

For `CC(C)CC#Cc1cnc2c(c1)C(=O)N([C@@H](C)CO)C[C@@H](C)[C@H](CN(C)Cc1ccccc1C(=O)O)O2`, which reporter increase is on record?
Its reporter increase is inactive: -1.43%.

Which reporter increase does the source give for `CC(C)Cc1ccc(/C=C/C(=O)NC2CC2)cc1` here?
The reporter increase was active: 49.2%.

For `COc1cccc(OC)c1OCCCOc1cccc2cccnc12`, which reporter increase is on record?
Its reporter increase is inconclusive: 31.7%.

For `CCCc1cc2c(cc1NC(=O)c1ccc(C)cc1)OCO2`, which reporter increase is on record?
Its reporter increase is inactive: 27.9%.

With `Cc1ccc(N2C(=O)SC(N(CC(=O)O)c3cccc(C)c3)C2=O)cc1` (stereo unspecified) as the compound, how does the reporter increase read?
The reporter increase was inactive: 34.6%.

Which reporter increase does the source give for `O=C(Nc1ccc(Cl)cc1)c1ccc(-c2ccccn2)s1` here?
Its reporter increase is inconclusive: 53.9%.

For `O=C(Nc1nc2ccccc2s1)c1cc2c(s1)-c1ccccc1OC2`, which reporter increase is on record?
The reporter increase was inconclusive: 42.6%.

Which reporter increase does the source give for `COc1ccc(-c2noc(-c3ccccc3Cl)n2)cc1OC` here?
Its reporter increase is inconclusive: 41.3%.

For `C/C(CC(=O)Nc1ccc(OCc2ccccc2)cc1)=N\NC(=O)C(=O)Nc1ccc(C)c(Cl)c1`, which reporter increase is on record?
The reporter increase was inconclusive: 42.4%.

For `O=C(O)c1cc(NC(=O)c2ccccc2F)cc(NC(=O)c2ccccc2F)c1`, which reporter increase is on record?
The reporter increase was inactive: -10.3%.

With `Nc1ccccc1C(=O)NN=Cc1cccc([N+](=O)[O-])c1` as the compound, how does the reporter increase read?
The reporter increase was inconclusive: 44.1%.

For `Cc1cccc(NC(=O)/C(C#N)=C/c2ccccc2O)n1`, which reporter increase is on record?
Its reporter increase is inconclusive: 48.4%.

For `CCOC(=O)c1c(C)[nH]c(C(=O)COc2ccc3c(c2)OCO3)c1C`, which reporter increase is on record?
Its reporter increase is inconclusive: 40.9%.

With `C[C@@H]1CN([C@@H](C)CO)C(=O)Cc2cc(NC(=O)Nc3ccc(F)cc3)ccc2O[C@H]1CN(C)Cc1ccccc1` as the compound, how does the reporter increase read?
The reporter increase was inactive: -1.66%.

Which reporter increase does the source give for `O=C(Nc1ccc2c(c1)OCO2)c1ccc([N+](=O)[O-])cc1[N+](=O)[O-]` here?
Its reporter increase is inconclusive: 41%.

For `Cc1ccc(-c2nc3ccc(Cl)cn3c2Cc2cccc(Cl)c2)cc1`, which reporter increase is on record?
Its reporter increase is active: 49.8%.

With `CNc1cncc(-c2ccc(C)cc2)n1` as the compound, how does the reporter increase read?
The reporter increase was inconclusive: 44.7%.

With `CNC[C@@H]1Oc2ncc(Br)cc2C(=O)N([C@@H](C)CO)C[C@@H]1C` as the compound, how does the reporter increase read?
The reporter increase was inactive: -2.83%.

For `COc1cc(NC(=O)c2ccc3c(c2)OCO3)c2ncccc2c1`, which reporter increase is on record?
The reporter increase was inconclusive: 41.1%.

For `COc1ccc2cc(C(=O)Nc3ccccc3)sc(=O)c2c1OC`, which reporter increase is on record?
The reporter increase was inconclusive: 40.2%.

For `CCCN1C(=O)S/C(=C/c2ccc(N3CCOCC3)o2)C1=O`, which reporter increase is on record?
Its reporter increase is inconclusive: 56.4%.

Which reporter increase does the source give for `c1ccc(-c2csc(NC3CCCCC3)n2)cc1` here?
The reporter increase was inconclusive: 41.4%.

Which reporter increase does the source give for `CCC(C)[C@H](NC(=O)OC(C)(C)C)C(=O)NCC1CCC(C(=O)N[C@@H](Cc2ccccc2)C(=O)O)CC1` (stereo partly specified) here?
The reporter increase was inactive: -2.33%.

With `COC(=O)c1ccc(OCCOc2ccccc2)cc1` as the compound, how does the reporter increase read?
The reporter increase was active: 45.7%.

For `CCOC(=O)c1sc(=NC(=O)c2ccccc2Br)n(C)c1C`, which reporter increase is on record?
The reporter increase was active: 58.4%.

For `Clc1ccccc1OCc1nc(-c2ccncc2)no1`, which reporter increase is on record?
Its reporter increase is inconclusive: 46.6%.

With `O=C(Nc1ccc(Br)cc1F)c1ccc2nsnc2c1` as the compound, how does the reporter increase read?
Its reporter increase is inconclusive: 41.9%.

Which reporter increase does the source give for `Cc1csc2ncc(C(=O)Nc3ccccc3Cl)c(=O)n12` here?
The reporter increase was inconclusive: 41.9%.

Which reporter increase does the source give for `Cc1ccc(-c2csc(N/N=C/c3ccco3)n2)cc1` here?
Its reporter increase is inconclusive: 45.6%.

For `N/C(=N\OC(=O)c1cccs1)c1cccnc1`, which reporter increase is on record?
Its reporter increase is inconclusive: 40.4%.

Which reporter increase does the source give for `Cc1cc(/C=N/NC(=O)c2cccs2)c(C)n1-c1cnccn1` here?
Its reporter increase is inconclusive: 50.8%.
